Measurements from article PMC6389929.
These are yes or no findings as the source states them, for the method shown. In cells and extracts the contact can be indirect. Some binding calls cover weakened binding; strength is not graded here. For part of these data: Where a sequence is shown, tags or fusion partners need not be part of it.

Chains of the proteins cited; added tags and fusions are not shown. Lines headed by an entry give the natural chain unless they say otherwise; changes in a name come on top.
UniProt Q93009: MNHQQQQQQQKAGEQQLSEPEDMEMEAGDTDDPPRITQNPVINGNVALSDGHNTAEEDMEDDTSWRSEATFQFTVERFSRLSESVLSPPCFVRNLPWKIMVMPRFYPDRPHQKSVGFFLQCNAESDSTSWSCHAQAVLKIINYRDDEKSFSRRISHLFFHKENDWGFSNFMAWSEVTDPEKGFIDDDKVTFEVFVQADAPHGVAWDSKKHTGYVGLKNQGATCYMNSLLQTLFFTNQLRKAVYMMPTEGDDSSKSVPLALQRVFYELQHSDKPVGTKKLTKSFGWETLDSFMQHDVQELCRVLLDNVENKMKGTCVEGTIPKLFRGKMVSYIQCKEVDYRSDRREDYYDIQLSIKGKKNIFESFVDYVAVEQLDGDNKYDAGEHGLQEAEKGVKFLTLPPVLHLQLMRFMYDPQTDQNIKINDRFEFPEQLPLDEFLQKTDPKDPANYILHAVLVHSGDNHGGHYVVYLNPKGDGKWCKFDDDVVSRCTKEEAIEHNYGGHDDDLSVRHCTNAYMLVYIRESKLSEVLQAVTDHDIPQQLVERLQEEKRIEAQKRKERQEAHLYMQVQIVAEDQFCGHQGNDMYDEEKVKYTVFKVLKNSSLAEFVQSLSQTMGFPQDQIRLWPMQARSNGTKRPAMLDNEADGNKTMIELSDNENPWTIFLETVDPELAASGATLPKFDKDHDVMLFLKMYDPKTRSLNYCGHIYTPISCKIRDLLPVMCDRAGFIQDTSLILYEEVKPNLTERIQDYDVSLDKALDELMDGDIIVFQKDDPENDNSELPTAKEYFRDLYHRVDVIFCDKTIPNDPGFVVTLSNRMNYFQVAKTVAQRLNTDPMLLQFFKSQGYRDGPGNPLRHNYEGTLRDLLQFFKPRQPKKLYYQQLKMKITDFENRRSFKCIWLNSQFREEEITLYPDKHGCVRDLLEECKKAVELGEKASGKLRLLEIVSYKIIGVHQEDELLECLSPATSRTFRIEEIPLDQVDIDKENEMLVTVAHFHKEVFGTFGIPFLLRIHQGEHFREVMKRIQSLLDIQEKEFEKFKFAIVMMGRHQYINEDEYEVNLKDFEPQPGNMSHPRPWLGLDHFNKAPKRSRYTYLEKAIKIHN
UniProt P63208: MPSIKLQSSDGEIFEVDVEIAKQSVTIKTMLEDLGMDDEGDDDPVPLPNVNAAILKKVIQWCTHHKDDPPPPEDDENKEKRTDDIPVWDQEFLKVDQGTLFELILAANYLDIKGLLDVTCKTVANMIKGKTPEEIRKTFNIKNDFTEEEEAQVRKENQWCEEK
UniProt Q96Q89: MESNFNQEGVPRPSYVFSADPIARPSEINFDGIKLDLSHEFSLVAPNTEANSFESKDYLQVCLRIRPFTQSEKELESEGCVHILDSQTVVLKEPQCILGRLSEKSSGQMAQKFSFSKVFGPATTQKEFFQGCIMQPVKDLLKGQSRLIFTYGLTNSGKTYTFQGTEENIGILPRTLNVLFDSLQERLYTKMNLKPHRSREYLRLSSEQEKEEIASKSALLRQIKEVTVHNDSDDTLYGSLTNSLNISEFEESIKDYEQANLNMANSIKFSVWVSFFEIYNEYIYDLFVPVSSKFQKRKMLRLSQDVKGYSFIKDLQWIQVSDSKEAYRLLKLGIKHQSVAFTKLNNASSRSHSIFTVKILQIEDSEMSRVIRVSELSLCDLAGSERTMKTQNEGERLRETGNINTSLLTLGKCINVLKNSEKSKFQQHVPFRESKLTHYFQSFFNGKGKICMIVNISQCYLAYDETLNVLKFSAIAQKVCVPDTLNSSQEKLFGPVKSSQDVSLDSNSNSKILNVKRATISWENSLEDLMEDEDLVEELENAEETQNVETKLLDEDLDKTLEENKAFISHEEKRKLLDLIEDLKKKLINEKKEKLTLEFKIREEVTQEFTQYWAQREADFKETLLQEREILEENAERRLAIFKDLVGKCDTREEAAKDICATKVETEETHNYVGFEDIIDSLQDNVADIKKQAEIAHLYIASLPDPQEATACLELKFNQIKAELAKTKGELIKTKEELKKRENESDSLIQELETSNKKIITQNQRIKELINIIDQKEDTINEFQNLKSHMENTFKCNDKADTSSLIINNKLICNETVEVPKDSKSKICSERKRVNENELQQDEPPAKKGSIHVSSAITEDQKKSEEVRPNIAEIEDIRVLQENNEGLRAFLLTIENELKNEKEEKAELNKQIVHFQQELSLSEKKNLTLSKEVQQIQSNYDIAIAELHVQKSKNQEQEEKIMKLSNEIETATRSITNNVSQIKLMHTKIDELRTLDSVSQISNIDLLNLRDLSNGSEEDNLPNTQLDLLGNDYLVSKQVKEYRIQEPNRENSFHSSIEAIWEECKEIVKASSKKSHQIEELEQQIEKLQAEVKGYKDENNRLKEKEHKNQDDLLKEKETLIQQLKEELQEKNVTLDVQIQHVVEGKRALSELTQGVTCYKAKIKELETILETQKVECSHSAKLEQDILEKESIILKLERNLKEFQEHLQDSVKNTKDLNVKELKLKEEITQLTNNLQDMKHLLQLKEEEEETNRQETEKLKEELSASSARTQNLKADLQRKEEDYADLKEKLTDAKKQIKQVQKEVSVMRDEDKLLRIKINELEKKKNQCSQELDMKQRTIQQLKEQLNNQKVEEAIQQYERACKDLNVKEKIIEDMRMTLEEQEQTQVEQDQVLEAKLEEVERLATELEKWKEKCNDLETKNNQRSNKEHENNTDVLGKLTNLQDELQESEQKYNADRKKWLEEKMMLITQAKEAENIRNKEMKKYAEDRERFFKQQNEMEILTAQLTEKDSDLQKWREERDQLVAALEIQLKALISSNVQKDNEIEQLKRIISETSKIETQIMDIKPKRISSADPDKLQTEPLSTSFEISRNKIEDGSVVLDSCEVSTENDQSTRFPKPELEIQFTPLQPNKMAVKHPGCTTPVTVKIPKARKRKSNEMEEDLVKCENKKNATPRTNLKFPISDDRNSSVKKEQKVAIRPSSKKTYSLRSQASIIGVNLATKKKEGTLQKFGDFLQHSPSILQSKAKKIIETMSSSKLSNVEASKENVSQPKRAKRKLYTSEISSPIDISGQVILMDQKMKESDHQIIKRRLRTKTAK

How the values were obtained:
FLAG-tagged FBXO38 (WT) [1] = target: T1, FLAG-tagged FBXO38 (WT) (UniProt Q6PIJ6); assay: co-IP; HEK293T cells co-transfected with FLAG-FBXO38 and myc-USP7 constructs; RIPA buffer; M2 anti-FLAG resin overnight at 4 °C; Western blot for FLAG and myc
T1 sequence: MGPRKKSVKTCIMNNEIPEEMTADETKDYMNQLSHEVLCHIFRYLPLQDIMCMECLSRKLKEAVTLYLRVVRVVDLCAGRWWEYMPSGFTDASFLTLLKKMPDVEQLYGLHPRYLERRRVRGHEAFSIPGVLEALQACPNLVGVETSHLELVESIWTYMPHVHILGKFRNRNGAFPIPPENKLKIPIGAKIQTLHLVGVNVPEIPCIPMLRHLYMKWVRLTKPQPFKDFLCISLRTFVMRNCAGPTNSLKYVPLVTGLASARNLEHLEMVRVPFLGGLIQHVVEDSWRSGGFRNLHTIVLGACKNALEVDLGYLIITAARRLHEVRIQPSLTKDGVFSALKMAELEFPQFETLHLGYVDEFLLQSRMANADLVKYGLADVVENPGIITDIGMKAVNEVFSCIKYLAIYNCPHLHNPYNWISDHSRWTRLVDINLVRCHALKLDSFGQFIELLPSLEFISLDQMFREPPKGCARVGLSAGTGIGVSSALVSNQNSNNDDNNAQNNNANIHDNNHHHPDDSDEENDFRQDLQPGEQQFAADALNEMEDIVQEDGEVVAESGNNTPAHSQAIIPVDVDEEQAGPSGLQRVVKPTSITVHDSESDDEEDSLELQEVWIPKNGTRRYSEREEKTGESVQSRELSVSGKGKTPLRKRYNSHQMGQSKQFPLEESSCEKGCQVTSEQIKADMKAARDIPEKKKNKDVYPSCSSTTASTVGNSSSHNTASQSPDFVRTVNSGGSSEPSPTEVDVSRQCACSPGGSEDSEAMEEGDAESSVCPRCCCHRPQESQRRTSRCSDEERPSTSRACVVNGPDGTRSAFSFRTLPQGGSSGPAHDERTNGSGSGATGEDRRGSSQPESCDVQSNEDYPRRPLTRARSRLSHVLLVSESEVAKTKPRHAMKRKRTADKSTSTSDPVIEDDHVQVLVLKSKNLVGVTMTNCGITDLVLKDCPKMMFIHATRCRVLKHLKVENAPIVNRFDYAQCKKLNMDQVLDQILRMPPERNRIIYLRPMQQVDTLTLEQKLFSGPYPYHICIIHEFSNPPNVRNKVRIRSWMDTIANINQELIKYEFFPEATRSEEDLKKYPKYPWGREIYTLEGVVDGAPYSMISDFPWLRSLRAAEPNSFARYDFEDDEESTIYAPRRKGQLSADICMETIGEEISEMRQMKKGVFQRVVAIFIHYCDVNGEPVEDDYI

FLAG-tagged FBXO38 (WT) [2] = target: T1, FLAG-tagged FBXO38 (WT); assay: co-IP; 293T cells co-transfected with HA-KIF20B and FLAG-FBXO38 WT or ΔFBX; lysis buffer 50 mM Tris-HCl pH 8.0, 150 mM NaCl, 10% glycerol, 0.1% NP-40; anti-FLAG M2 resin; Western blot for FLAG, HA and Skp1
[3] = target: T2, FLAG-FBXO38 mutant lacking the first 77 amino acids that contains the F-Box domain (FLAG-FBXO38ΔFBX) (UniProt Q6PIJ6); assay: as above
T2 sequence: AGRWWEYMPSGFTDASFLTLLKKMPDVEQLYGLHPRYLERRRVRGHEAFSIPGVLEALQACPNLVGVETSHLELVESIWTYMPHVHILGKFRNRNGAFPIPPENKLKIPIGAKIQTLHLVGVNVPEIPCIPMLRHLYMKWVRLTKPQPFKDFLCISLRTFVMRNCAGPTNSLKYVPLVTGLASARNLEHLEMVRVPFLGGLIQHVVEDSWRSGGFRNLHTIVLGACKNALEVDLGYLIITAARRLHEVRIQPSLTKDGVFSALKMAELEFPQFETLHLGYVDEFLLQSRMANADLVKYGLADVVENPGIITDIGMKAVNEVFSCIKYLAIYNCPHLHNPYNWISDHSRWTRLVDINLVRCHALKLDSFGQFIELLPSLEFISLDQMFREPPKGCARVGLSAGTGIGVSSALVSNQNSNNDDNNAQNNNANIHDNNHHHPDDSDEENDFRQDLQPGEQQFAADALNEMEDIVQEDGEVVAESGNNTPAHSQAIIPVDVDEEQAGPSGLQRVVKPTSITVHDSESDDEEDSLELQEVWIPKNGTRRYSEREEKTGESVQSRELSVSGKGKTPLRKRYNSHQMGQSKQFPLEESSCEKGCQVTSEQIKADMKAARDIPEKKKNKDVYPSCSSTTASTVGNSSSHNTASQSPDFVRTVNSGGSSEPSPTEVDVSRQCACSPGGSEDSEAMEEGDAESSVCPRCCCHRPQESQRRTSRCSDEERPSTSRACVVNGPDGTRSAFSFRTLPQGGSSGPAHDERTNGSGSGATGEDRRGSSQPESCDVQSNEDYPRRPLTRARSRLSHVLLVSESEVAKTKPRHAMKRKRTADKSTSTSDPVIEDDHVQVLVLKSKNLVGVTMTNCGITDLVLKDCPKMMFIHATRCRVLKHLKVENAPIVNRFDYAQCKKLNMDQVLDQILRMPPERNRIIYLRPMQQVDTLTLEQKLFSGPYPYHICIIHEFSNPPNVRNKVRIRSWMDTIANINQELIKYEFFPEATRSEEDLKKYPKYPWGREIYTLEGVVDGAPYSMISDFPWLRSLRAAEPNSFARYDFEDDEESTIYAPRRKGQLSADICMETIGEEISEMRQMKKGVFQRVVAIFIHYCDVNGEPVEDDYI

FLAG-tagged FBXO38 (WT) [4] = target: T1, FLAG-tagged FBXO38 (WT); assay: co-IP; AGS cells transfected with FLAG-FBXO38 for 48 hours; lysis buffer 50 mM Tris-HCl pH 8.0, 150 mM NaCl, 10% glycerol, 0.1% NP-40; anti-FLAG M2 resin; Western blot for endogenous KIF20B
FLAG-tagged FBXO38 (WT) [5] = target: T1, FLAG-tagged FBXO38 (WT); assay: co-IP; Supplementary Fig. S3: recovery of endogenous KIF20B and transiently expressed HA-KIF20B with FLAG-FBXO38 compared with FLAG-USP11 and FLAG-β-gal; cells not given
[6] = target: myc-USP7 Ubl2 pocket mutant (Ubl2), D762R,D764R (UniProt Q93009); assay: co-IP; AGS cells transfected with myc-USP7 constructs alone; RIPA buffer; anti-Myc resin overnight at 4 °C; Western blot for endogenous FBXO38
myc-tagged USP7 WT = myc-tagged USP7 WT (UniProt Q93009); assay: as above

“myc-tagged USP7 WT (from UniProt Q93009 1-1102) (enzyme)” was tested, and the binding (FLAG-tagged FBXO38 (WT) [1]) was “binds”.

“SKP1 (endogenous) (from UniProt P63208 1-163)” was tested, and the binding (FLAG-tagged FBXO38 (WT) [2]) was “binds” and the binding [3] was “no binding”.

“Kinesin Family member 20B (KIF20B), endogenous (from UniProt Q96Q89 1-1820)” was tested, and the binding (FLAG-tagged FBXO38 (WT) [4]) was “binds” and the binding (FLAG-tagged FBXO38 (WT) [5]) was “binds”.

With “myc-USP7 NTD pocket mutant (DW), D164A,W165A (from UniProt Q93009 1-1102) (enzyme)” the binding (FLAG-tagged FBXO38 (WT) [1]) was “no binding”.

In the case of “HA-tagged KIF20B (from UniProt Q96Q89 1-1820)”, the binding (FLAG-tagged FBXO38 (WT) [2]) is reported as “binds”, the binding [3] is reported as “binds” and the binding (FLAG-tagged FBXO38 (WT) [5]) is reported as “binds”.

“myc-USP7 Ubl2 pocket mutant (Ubl2), D762R,D764R (from UniProt Q93009 1-1102) (enzyme)” was tested, and the binding (FLAG-tagged FBXO38 (WT) [1]) was “binds”.

B1: F-box protein FBXO38 (endogenous) (protein, UniProt Q6PIJ6 1-1188)
chain: MGPRKKSVKTCIMNNEIPEEMTADETKDYMNQLSHEVLCHIFRYLPLQDIMCMECLSRKLKEAVTLYLRVVRVVDLCAGRWWEYMPSGFTDASFLTLLKKMPDVEQLYGLHPRYLERRRVRGHEAFSIPGVLEALQACPNLVGVETSHLELVESIWTYMPHVHILGKFRNRNGAFPIPPENKLKIPIGAKIQTLHLVGVNVPEIPCIPMLRHLYMKWVRLTKPQPFKDFLCISLRTFVMRNCAGPTNSLKYVPLVTGLASARNLEHLEMVRVPFLGGLIQHVVEDSWRSGGFRNLHTIVLGACKNALEVDLGYLIITAARRLHEVRIQPSLTKDGVFSALKMAELEFPQFETLHLGYVDEFLLQSRMANADLVKYGLADVVENPGIITDIGMKAVNEVFSCIKYLAIYNCPHLHNPYNWISDHSRWTRLVDINLVRCHALKLDSFGQFIELLPSLEFISLDQMFREPPKGCARVGLSAGTGIGVSSALVSNQNSNNDDNNAQNNNANIHDNNHHHPDDSDEENDFRQDLQPGEQQFAADALNEMEDIVQEDGEVVAESGNNTPAHSQAIIPVDVDEEQAGPSGLQRVVKPTSITVHDSESDDEEDSLELQEVWIPKNGTRRYSEREEKTGESVQSRELSVSGKGKTPLRKRYNSHQMGQSKQFPLEESSCEKGCQVTSEQIKADMKAARDIPEKKKNKDVYPSCSSTTASTVGNSSSHNTASQSPDFVRTVNSGGSSEPSPTEVDVSRQCACSPGGSEDSEAMEEGDAESSVCPRCCCHRPQESQRRTSRCSDEERPSTSRACVVNGPDGTRSAFSFRTLPQGGSSGPAHDERTNGSGSGATGEDRRGSSQPESCDVQSNEDYPRRPLTRARSRLSHVLLVSESEVAKTKPRHAMKRKRTADKSTSTSDPVIEDDHVQVLVLKSKNLVGVTMTNCGITDLVLKDCPKMMFIHATRCRVLKHLKVENAPIVNRFDYAQCKKLNMDQVLDQILRMPPERNRIIYLRPMQQVDTLTLEQKLFSGPYPYHICIIHEFSNPPNVRNKVRIRSWMDTIANINQELIKYEFFPEATRSEEDLKKYPKYPWGREIYTLEGVVDGAPYSMISDFPWLRSLRAAEPNSFARYDFEDDEESTIYAPRRKGQLSADICMETIGEEISEMRQMKKGVFQRVVAIFIHYCDVNGEPVEDDYI
In the case of B1, the binding [6] is reported as “binds” and the binding (myc-tagged USP7 WT) is reported as “binds”.
